Data taken from paper PMC6919601, “Identification of Plasmodium dipeptidyl aminopeptidase allosteric inhibitors by high throughput screening” (PLoS ONE, 2019).
Hit rate of the full screen: of about 110,000 compounds, about 230 (0.21%) showed an effect of 50% or more. Some of the results follow.

Each molecule was assayed against DPAP1 (Plasmodium falciparum, UniProt Q8IIJ9) (assay: primary screen, percent inhibition; read by cleavage of a fluorogenic dipeptide substrate; higher = more effect of the substance).
Chain of DPAP1 (Q8IIJ9 whole entry, looked up): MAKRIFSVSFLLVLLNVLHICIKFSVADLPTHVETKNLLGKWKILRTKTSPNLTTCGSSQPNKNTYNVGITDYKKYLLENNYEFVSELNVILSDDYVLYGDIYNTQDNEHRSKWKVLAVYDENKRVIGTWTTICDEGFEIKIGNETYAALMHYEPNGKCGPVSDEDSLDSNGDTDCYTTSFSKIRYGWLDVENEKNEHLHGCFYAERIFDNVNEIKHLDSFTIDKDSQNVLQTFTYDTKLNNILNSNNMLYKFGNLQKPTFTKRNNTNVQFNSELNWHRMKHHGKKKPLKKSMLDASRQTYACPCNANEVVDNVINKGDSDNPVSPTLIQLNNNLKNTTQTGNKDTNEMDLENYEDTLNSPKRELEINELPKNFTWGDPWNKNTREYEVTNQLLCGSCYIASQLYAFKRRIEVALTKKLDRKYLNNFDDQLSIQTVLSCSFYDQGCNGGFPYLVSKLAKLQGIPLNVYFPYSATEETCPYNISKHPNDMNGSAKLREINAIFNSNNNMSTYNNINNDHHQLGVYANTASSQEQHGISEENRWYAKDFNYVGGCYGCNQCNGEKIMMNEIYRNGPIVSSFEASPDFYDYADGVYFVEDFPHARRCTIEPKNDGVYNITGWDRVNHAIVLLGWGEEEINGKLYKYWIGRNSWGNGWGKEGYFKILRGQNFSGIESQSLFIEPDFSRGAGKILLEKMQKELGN
Parameters: species or system P. falciparum D10 trophozoite lysates; single well
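Further: 30 min substrate incubation versus DMSO and 10 µM JCP410 controls.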

**Q.** With CCOCCCN(Cc1ccco1)C(=O)Cn1ncc2c(=O)oc3ccc(C)cc3c21 as the molecule, how does the “% Inhibition @ 10 uM” value read?
**A.** -1.7%

**Q.** Which “% Inhibition @ 10 uM” value does the source give for Cc1cc(O)c(C(=O)c2ccccc2C(=O)O)cc1C here?
**A.** 3.84%

**Q.** For CCOC(=O)N1CCC(N2Cc3cccc(C(=O)NCCCN4CCCC4=O)c3C2=O)CC1, which “% Inhibition @ 10 uM” value is on record?
**A.** 1.23%

**Q.** How did the “% Inhibition @ 10 uM” value turn out when CC(=O)c1sc(NC(=O)COc2ccc(C(C)(C)C)cc2)nc1C was run?
**A.** -0.661%

**Q.** How did the “% Inhibition @ 10 uM” value turn out when CCO/C(O)=C1/C(C)=NC2=C(C(=O)CCC2)C1c1ccc(F)cc1 (centres unmarked) was run?
**A.** -4.04%

**Q.** CCN1C2=C(C(=O)CCC2)C(c2cc(Cl)ccc2OCC(=O)O)C2=C1CCCC2=O was tested. Which “% Inhibition @ 10 uM” value did it give?
**A.** 3.57%

**Q.** With COC(=O)c1cc2c(=O)n3cccc(C)c3nc2n(CCCn2ccnc2)c1=N as the molecule, how does the “% Inhibition @ 10 uM” value read?
**A.** 3.16%

**Q.** Cc1ccc(NS(=O)(=O)c2ccc(NC(=O)C3CC3)cc2)cc1C was tested. Which “% Inhibition @ 10 uM” value did it give?
**A.** -5.51%

**Q.** How did the “% Inhibition @ 10 uM” value turn out when CC(C)(C)c1ccc(C(=O)O/N=C(\N)c2ccccn2)cc1 was run?
**A.** 0.343%

**Q.** How did the “% Inhibition @ 10 uM” value turn out when Cc1ccc(Cl)cc1NC=C1C(=O)N(C)C(=O)N(C)C1=O was run?
**A.** -2.87%

**Q.** CCCCOc1ccc(C(C)NC(=O)C2CCCN(S(=O)(=O)CC)C2)cc1 (centres unmarked) was tested. Which “% Inhibition @ 10 uM” value did it give?
**A.** 3.24%

**Q.** O=C(c1ccc(Br)o1)N1CCN(C(c2ccccc2)c2ccccc2)CC1 was tested. Which “% Inhibition @ 10 uM” value did it give?
**A.** -1.54%

**Q.** Which “% Inhibition @ 10 uM” value does the source give for CCC1CCCCN1C(=O)CSc1nnc(-c2cccs2)o1 (centres unmarked) here?
**A.** -4.66%

**Q.** Which “% Inhibition @ 10 uM” value does the source give for Cc1cc2c(c(=O)n1Cc1cccnc1)C(c1ccco1)C(C#N)=C(N)O2 (centres unmarked) here?
**A.** 3.62%

**Q.** CSC1=C(C#N)C(C)(c2ccccc2)C(C#N)C(=O)N1 (centres unmarked) was tested. Which “% Inhibition @ 10 uM” value did it give?
**A.** -4.33%

**Q.** With CCO/C(O)=C1\C(C)=NC2=C(C(=O)c3ccccc32)C1c1cc(Br)c(OCC)c(OC)c1 (centres unmarked) as the molecule, how does the “% Inhibition @ 10 uM” value read?
**A.** -3.4%

**Q.** For CC(NC(=O)c1ccc2ccccc2n1)c1ccccc1 (centres unmarked), which “% Inhibition @ 10 uM” value is on record?
**A.** -4.93%

**Q.** Which “% Inhibition @ 10 uM” value does the source give for CN(C)c1ccc(/C=C(\C#N)c2nc(-c3ccc(-c4ccccc4)cc3)cs2)cc1 here?
**A.** 5.77%

**Q.** Cc1nn(-c2ccc(F)cc2)c(O)c1/C=N/c1ccc(SC#N)cc1 was tested. Which “% Inhibition @ 10 uM” value did it give?
**A.** -2.68%

**Q.** For N#CC1=C(N)OC2=C(C(=O)CCC2)C1c1ccccc1[N+](=O)[O-] (centres unmarked), which “% Inhibition @ 10 uM” value is on record?
**A.** -1.29%

**Q.** Which “% Inhibition @ 10 uM” value does the source give for CCOc1ccc(NC(=O)CN2C(=O)S/C(=C/c3cc(C)n(C)c3C)C2=O)cc1 here?
**A.** -8.2%

**Q.** COc1nc(C)nc2c(CN3CCCCC3)c(C)[nH]c12 was tested. Which “% Inhibition @ 10 uM” value did it give?
**A.** 3.69%

**Q.** For CC1CCN(S(=O)(=O)c2ccc3ncc(C(=O)O)c(O)c3c2)CC1, which “% Inhibition @ 10 uM” value is on record?
**A.** -1.46%

**Q.** With Cc1ccc(/N=C(/Nc2ccc(C)cc2)c2ccccc2)cc1 as the molecule, how does the “% Inhibition @ 10 uM” value read?
**A.** -4.06%

**Q.** Which “% Inhibition @ 10 uM” value does the source give for CC(=O)C1C(=O)CC(O)(c2ccccc2)CC1C=C(Cl)Cl (centres unmarked) here?
**A.** -0.215%

**Q.** With COc1ccc(NC(=O)c2ccccc2N(C)S(=O)(=O)c2ccc(C)cc2)cc1OC as the molecule, how does the “% Inhibition @ 10 uM” value read?
**A.** -3.45%

**Q.** Which “% Inhibition @ 10 uM” value does the source give for COc1ccc(-c2nc(S(=O)(=O)c3ccccc3)c(N3CCCCC3)o2)cc1OC here?
**A.** -1.25%

**Q.** How did the “% Inhibition @ 10 uM” value turn out when CN(C)c1ccc(CN(C(=O)COc2ccccc2Cl)C2CCS(=O)(=O)C2)cc1 (centres unmarked) was run?
**A.** -0.28%

**Q.** Which “% Inhibition @ 10 uM” value does the source give for Cc1cc(C)c2c(-n3cccc3)c(C(=O)NCCCN3CCc4ccccc4C3)sc2n1 here?
**A.** -4.68%

**Q.** For Cc1ccc(/C=C2\N=C(C3CCCCC3)OC2=O)cc1, which “% Inhibition @ 10 uM” value is on record?
**A.** -0.251%

**Q.** Which “% Inhibition @ 10 uM” value does the source give for O=P(O)(O)c1ccccc1OCCCOc1ccccc1P(=O)(O)O here?
**A.** -5.63%

**Q.** O=C(NC(=O)C1CCNCC1)c1cc2c(s1)CS(=O)(=O)C2 was tested. Which “% Inhibition @ 10 uM” value did it give?
**A.** -3.17%

**Q.** With Fc1ccc(Nc2nc(-c3ccc(-c4ccccc4)cc3)cs2)cc1 as the molecule, how does the “% Inhibition @ 10 uM” value read?
**A.** -4.31%

**Q.** Which “% Inhibition @ 10 uM” value does the source give for O=C(Nc1ccc(S(=O)(=O)Nc2ccc(F)cc2)cc1)c1ccc(F)cc1 here?
**A.** -2.16%

**Q.** Which “% Inhibition @ 10 uM” value does the source give for CC(C)CC(C(=O)NCC#N)c1cccc(-c2ccc(NS(=O)(=O)c3cccs3)cc2)c1 (centres unmarked) here?
**A.** 0.173%

**Q.** Oc1cc(-c2ccccc2)nc2nc(Cc3ccccc3)nn12 was tested. Which “% Inhibition @ 10 uM” value did it give?
**A.** 0.795%

**Q.** How did the “% Inhibition @ 10 uM” value turn out when COc1ccc(C(=O)Nc2ccc(Cl)cc2F)c(OC)c1 was run?
**A.** 5.26%

**Q.** How did the “% Inhibition @ 10 uM” value turn out when Cc1coc2c(C)c3oc(=O)c(CC(=O)O)c(C)c3cc12 was run?
**A.** 2.21%

**Q.** CC1=C(C(=O)OCC2CCCO2)C(c2cccc(C(F)(F)F)c2)C2=C(O)CCCC2=N1 (centres unmarked) was tested. Which “% Inhibition @ 10 uM” value did it give?
**A.** 12.2%

**Q.** Which “% Inhibition @ 10 uM” value does the source give for CC(=O)c1ccc(C(=O)N2CCN(c3ccccc3F)CC2)cc1 here?
**A.** -0.795%

**Q.** For COc1cc(/C=C(\C#N)c2nc3ccccc3[nH]2)c(Br)cc1O, which “% Inhibition @ 10 uM” value is on record?
**A.** 9.47%

**Q.** For CCCCN(Cc1ccco1)C(=O)CCc1c(C)nc2c3c(C)cc(C)nc3nn2c1C, which “% Inhibition @ 10 uM” value is on record?
**A.** -4.74%

**Q.** COc1ccc(/C=C/c2ncc3ccccn23)cc1 was tested. Which “% Inhibition @ 10 uM” value did it give?
**A.** 9.21%

**Q.** For COc1ccc(CNc2nc(-c3ccc(F)cc3)cc(C(F)(F)F)n2)cc1, which “% Inhibition @ 10 uM” value is on record?
**A.** 0.287%

**Q.** CCCN1CCC(N(C)C2CCCCC2)CC1 was tested. Which “% Inhibition @ 10 uM” value did it give?
**A.** 1.57%

**Q.** How did the “% Inhibition @ 10 uM” value turn out when Cc1ccc(C)c(NC(=O)c2cnccn2)c1 was run?
**A.** -3.74%

**Q.** Which “% Inhibition @ 10 uM” value does the source give for CC(C)(C)Oc1ncc(-c2ccsc2)c(OC(C)(C)C)n1 here?
**A.** 2.4%

**Q.** Which “% Inhibition @ 10 uM” value does the source give for Cn1c(=O)cc2c3c(c(N4CCOCC4)ccc31)C(=O)c1ccccc1-2 here?
**A.** -1.64%

**Q.** How did the “% Inhibition @ 10 uM” value turn out when CN(CCCNC(=O)C1CCN(S(=O)(=O)N2CCC3(CC2)OCCO3)CC1)Cc1ccccc1 was run?
**A.** 2.18%

**Q.** With CNC(=O)C(=O)C(CCc1ccccc1)NC(=O)[C@H](CC(C)C)NC(=O)OCc1ccccc1 (some centres unmarked) as the molecule, how does the “% Inhibition @ 10 uM” value read?
**A.** -5.64%
